# Data published in PubChem BioAssay (Tox21).
# “And” between values parts separate entries of the source, which are not always exact repeats. Equal entries are not always repeated. The source made the active and inactive calls. Where a call stands in place of a potency, no number is given. Unless noted, the call rests on the fitted dose curve; in most records, active means well fitted curve in the direction sought with a large enough effect in the repeat runs; inconclusive means weak or mixed curves; inactive means no such curve, though single readings can be large; an effect the other way counts as inactive or inconclusive.
# Experiments:
# [1] = qHTS assay to identify small molecule antagonists of the farnesoid-X-receptor (FXR) signaling pathway - cell viability counter screen (AID 743221; active means well fitted cell-killing curve with a large enough effect in the repeat runs, not every such curve was filed as active; inconclusive means weak or mixed curves, or effect the other way; inactive means no such curve, though single readings can be large or run the other way; further: nearly all actives have a fitted effect of over 50% in size); conditions: FXR-bla HEK293T viability, CellTiter-Glo luminescence, 16 h; activity change, negative = cytotoxicity: at 62.6 µM (top of the series) unless noted
# How it was run: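 Compound effects on cell number were measured as CellTiter-Glo luminescence in HEK 293T cells expressing FXR-UAS-bla, after 16 h at 37 C with 50 uM CDCA (final).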
# [2] = A CellTox Green Cytotoxicity Assay to monitor cytotoxicity in HEK293 cells - 24 hour (AID 1224875); further: nearly all actives have a fitted effect of over 45% in size; further: potency means the concentration at half of the fitted maximal effect
# How it was run: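 Dead-cell fluorescence measured kinetically: asymmetric cyanine dye, HEK293, 600 cells/well, 5 h settle, 23 nL cpd/DMSO, 37 C, reads 0–40 h every 8 h.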
# [3] = qHTS assay to identify small molecule HDAC inhibitors (AID 1259364); further: potency means the concentration at half of the fitted maximal effect;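 further: wild-type HCT-116 cells with endogenous class I/II HDAC activity; nearly all actives have a fitted effect of over 45% in size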
# How it was run: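 Quantitative high-throughput format: overnight-seeded HCT-116 cells got compounds for 2 hr at 37C; HDAC-Glo I/II reagent added, 30 min RT, luminescence measured.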
# [4] = target: Estrogen receptor (Homo sapiens) (UniProt P03372); assay: qHTS assay to identify small molecule agonists of the estrogen receptor alpha (ER-alpha) signaling pathway in the presence of an antagonist (AID 1259383; calls by dose curve; further: potency means the concentration at half of the fitted maximal effect; nearly all actives have a fitted effect of over 15% in size)
# Chain of UniProt P03372 (P03372 whole entry, looked up): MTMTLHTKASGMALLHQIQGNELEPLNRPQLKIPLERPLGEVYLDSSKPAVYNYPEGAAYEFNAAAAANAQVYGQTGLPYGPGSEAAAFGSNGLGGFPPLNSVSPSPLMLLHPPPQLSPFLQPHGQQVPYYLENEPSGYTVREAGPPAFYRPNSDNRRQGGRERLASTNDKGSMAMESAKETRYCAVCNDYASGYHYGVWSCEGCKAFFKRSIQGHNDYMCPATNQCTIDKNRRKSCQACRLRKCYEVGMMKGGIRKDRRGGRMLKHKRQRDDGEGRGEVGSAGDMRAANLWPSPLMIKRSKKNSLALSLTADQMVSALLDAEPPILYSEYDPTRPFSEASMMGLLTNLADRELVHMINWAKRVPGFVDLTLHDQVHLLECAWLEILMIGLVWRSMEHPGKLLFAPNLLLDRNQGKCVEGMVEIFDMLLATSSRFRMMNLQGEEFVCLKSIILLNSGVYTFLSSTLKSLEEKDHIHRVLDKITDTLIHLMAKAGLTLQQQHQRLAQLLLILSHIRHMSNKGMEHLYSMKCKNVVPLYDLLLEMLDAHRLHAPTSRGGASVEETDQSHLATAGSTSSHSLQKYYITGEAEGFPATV
# How it was run: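 Readout was ERE-driven luciferase luminescence in VM7Luc4E2 cells, which express full-length ER-alpha endogenously. Compounds were tested at 15 concentrations for 22hr alongside 10.0nM ICI-182,780 (final concentration).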
# [5] = qHTS RealTime-Glo MT Cell Viability Assay in HepG2 cells - 32 hour (AID 1224877); further: nearly all actives have a fitted effect of over 55% in size; further: potency means the concentration at half of the fitted maximal effect
# How it was run: (§1)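 HepG2 suspension premixed with RealTime-Glo reagents is plated at 600 cells per well and left 5 h at 37 C/5% CO2. Compounds in DMSO then go in, and bioluminescence reflecting viable cell number is recorded over 40 h.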
# [6] = target: Androgen receptor (Homo sapiens) (UniProt P10275); assay: qHTS assay to identify small molecule antagonists of the androgen receptor (AR) signaling pathway using the MDA cell line (AID 743042; further: nearly all actives have a fitted effect of over 55% in size; further: potency means the concentration at half of the fitted maximal effect)
# Chain of UniProt P10275 (P10275 whole entry, looked up): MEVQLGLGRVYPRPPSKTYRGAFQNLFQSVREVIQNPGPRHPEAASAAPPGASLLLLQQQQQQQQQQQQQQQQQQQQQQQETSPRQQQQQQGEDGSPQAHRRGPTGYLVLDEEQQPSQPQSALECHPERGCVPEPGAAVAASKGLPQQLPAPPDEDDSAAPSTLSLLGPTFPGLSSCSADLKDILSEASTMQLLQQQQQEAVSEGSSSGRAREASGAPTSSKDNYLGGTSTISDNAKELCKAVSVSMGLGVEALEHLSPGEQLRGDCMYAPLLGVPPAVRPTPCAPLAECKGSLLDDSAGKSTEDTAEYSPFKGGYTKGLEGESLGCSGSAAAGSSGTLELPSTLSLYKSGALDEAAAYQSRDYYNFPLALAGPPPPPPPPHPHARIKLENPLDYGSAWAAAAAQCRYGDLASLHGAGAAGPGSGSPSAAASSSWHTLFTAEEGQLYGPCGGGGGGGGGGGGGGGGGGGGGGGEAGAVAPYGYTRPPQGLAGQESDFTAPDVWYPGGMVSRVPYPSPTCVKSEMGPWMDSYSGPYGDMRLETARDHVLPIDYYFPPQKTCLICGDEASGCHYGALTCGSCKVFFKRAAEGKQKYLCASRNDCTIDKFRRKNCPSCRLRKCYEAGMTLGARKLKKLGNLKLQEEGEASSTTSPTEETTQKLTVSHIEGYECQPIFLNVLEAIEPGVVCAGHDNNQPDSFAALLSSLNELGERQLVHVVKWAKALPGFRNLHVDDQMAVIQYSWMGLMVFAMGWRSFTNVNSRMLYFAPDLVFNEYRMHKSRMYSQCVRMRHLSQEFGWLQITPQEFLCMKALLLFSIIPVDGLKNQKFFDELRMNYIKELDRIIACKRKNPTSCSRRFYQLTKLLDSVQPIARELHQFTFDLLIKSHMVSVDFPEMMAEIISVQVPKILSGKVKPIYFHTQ
# How it was run: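 MDA-kb2 cells (human breast carcinoma, stably carrying an MMTV-luciferase reporter responsive to AR and GR) were plated at 3,000 cells/well and preincubated 5 hr at 37C, then given compound plus R1881 agonist for 16 h. ONE-Glo luminescence was read.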
# [7] = target: Nuclear receptor subfamily 1 group I member 2 (Homo sapiens) (UniProt O75469); assay: CYP3A4 induction through human pregnane X receptor (PXR) by small molecules, qHTS assay (AID 1346984); conditions: DPX-2 HepG2 PXR, CYP3A4-luciferin luminescence, 24 h; activation: at 46.1 µM (top of the series) unless noted; further: nearly all actives have a fitted effect of over 40% in size; further: potency means the concentration at half of the fitted maximal effect
# How it was run: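 Induction measured in HepG2-based DPX-2 cells co-expressing human PXR and a CYP3A4 promoter-driven luciferase. After a 24-hour compound exposure, cells received CYP3A4 luciferin substrate at 3uM final for 3 hours, and light output was then recorded.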
# [8] = qHTS assay for small molecules that induce genotoxicity in human embryonic kidney cells expressing luciferase-tagged ATAD5 (AID 651632); further: nearly all actives have a fitted effect of over 15% in size; further: potency means the concentration at half of the fitted maximal effect
# How it was run: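 Quantitative HTS in HEK293T expressing luciferase-tagged ATAD5, whose levels rise upon DNA damage. Exposure ran 16 hr at 37C and 5% CO2, with luminescence read 30 min after Amplite addition at room temperature.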
# [9] = qHTS assay to identify small molecule agonists of the TGF-beta/Smad signaling pathway - cell viability counter screen (AID 1346829); further: nearly all actives have a fitted effect of over 45% in size; further: potency means the concentration at half of the fitted maximal effect; on activity change, negative = cytotoxicity: top concentration of the series differs between compounds
# How it was run: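 Same-well cytotoxicity: CellTiter-Glo added after the 2 hr room-temperature beta-lactamase substrate step, luminescence measured 30 min later; cells had 5 hr of compound at 37 C.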
# [10] = target: Estrogen receptor (Homo sapiens) (UniProt P03372); assay: qHTS assay to identify small molecule antagonists of the estrogen receptor alpha (ER-alpha) signaling pathway using the BG1 cell line in the presence of 0.1 nM 17-beta-estradiol (AID 1259244); further: nearly all actives have a fitted effect of over 50% in size; further: potency means the concentration at half of the fitted maximal effect
# How it was run: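 Reporter is a stably transfected luciferase under four estrogen responsive elements in VM7Luc4E2 cells expressing native full-length ER-alpha; inhibition of 0.1 nM (final) 17beta-estradiol-driven signal over 22 h is read by luminescence.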
# [11] = qHTS assay to identify small molecule phospholipidosis (PLD) inducers (AID 1259344; active means well fitted curve in the direction sought with a large enough effect; inconclusive means small, poorly fitted or top-dose-only effect, or another doubt; inactive means no such curve, though single readings can be large; an effect the other way counts as inactive or inconclusive; further: potency means the concentration at half of the fitted maximal effect); conditions: HepG2 phospholipidosis, LipidTOX Red imaging, 24 h; PLD induction: at 38.3 µM (top of the series) unless noted
# How it was run: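 Cells (HepG2, 900 per well) attach for 4 h, receive LipidTOX Red and compound together, incubate 24 h at 37 C, are fixed 30 min with paraformaldehyde/Hoechst, then imaged at one site per well.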
# [12] = qHTS assay to test for compound auto fluorescence at 460 nm (blue) in HEK293 cell free culture (AID 720681); further: potency means the concentration at half of the fitted maximal effect
# How it was run: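 Test compounds were pinned into cell-free culture medium (DMEM with 10% FBS) and fluorescence was read directly at Ex/Em 405/460 nm. Signals were expressed as fluorescence equivalents of triamterene, with DMSO vehicle as control.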
# [13] = qHTS assay for small molecule activators of the heat shock response signaling pathway - cell viability counter screen (AID 743209); conditions: HSE-bla HeLa viability, CellTiter-Glo luminescence, 5 h; activity change, negative = cytotoxicity: at 62.6 µM (top of the series) unless noted; further: nearly all actives have a fitted effect of over 50% in size; further: potency means the concentration at half of the fitted maximal effect
# How it was run: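 Viability of HSE-bla HeLa cells is measured with CellTiter-Glo in the wells already used for the reporter read. Compound exposure lasts 5 h at 37 C, and luminescence is read after 30 min at room temperature.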
# [14] = qHTS assay to identify small molecule agonists of the estrogen receptor alpha (ER-alpha) signaling pathway in the presence of an antagonist - cell viability counter screen (AID 1259386);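 further: cells exposed to compounds for 22 h at 37 °C before the viability read; nearly all actives have a fitted effect of over 30% in size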; further: potency means the concentration at half of the fitted maximal effect
# How it was run: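 In this counter screen, compound effects on VM7Luc4E2 viability were tested in the presence of the antagonist ICI-182,780 at 10.0nM final. Compounds were dosed at 15 concentrations, exposure lasted 22hr, and the CellTiter-Fluor signal was read.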
# [15] = qHTS RealTime-Glo MT Cell Viability Assay in HEK293 cells - 0 hour (AID 1224880); further: potency means the concentration at half of the fitted maximal effect; nearly all actives have a fitted effect of over 45% in size
# How it was run: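 600 HEK293 cells per well, dispensed already mixed with RealTime-Glo MT reagents. Compound dosing came 5 h later. The same wells were read for luminescence at 0, 8, 16, 24, 32 and 40 h of exposure at 37 C.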
# [16] = qHTS RealTime-Glo MT Cell Viability Assay in HepG2 cells - 0 hour (AID 1224889); further: nearly all actives have a fitted effect of over 50% in size; further: potency means the concentration at half of the fitted maximal effect
# How it was run: as §1
# [17] = qHTS assay to identify small molecule antagonists of the estrogen receptor alpha (ER-alpha) signaling pathway using the BG1 cell line in the presence of 0.1 nM 17-beta-estradiol - cell viability counter screen (AID 1259241); further: nearly all actives have a fitted effect of over 40% in size; further: potency means the concentration at half of the fitted maximal effect
# How it was run: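 Measures cytotoxicity alongside the ER-alpha antagonist readout: VM7Luc4E2 cells, charcoal-stripped serum, 0.1 nM 17beta-estradiol final, 22 hr compound incubation at 37C, CellTiter-Fluor fluorescence.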
# [18] = qHTS assay to identify small molecule antagonists of the estrogen related receptor (ERR) signaling pathway from Tox21 library (AID 1224848); further: nearly all actives have a fitted effect of over 50% in size; further: potency means the concentration at half of the fitted maximal effect
# How it was run: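 First, 2,000 ERR cells per well were plated and held 6 h at 37 C/5% CO2. Next, compounds in DMSO were pinned in and left 18 h at 37 C. Finally, ONE-Glo was added and luminescence read after 30 min at room temperature.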
# [19] = qHTS assay for small molecule agonists of the p53 signaling pathway - cell viability (AID 651633; calls by dose curve;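 further: p53RE-bla HCT reporter cells with a stable beta-lactamase p53 reporter; nearly all actives have a fitted effect of over 30% in size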)
# How it was run: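 p53RE-bla cells, seeded at 4,000 per well and rested 5 h at 37 C/5% CO2, received compounds in DMSO for 16 h at 37 C. CellTiter-Glo was then added, and luminescence was read after 30 min at room temperature to gauge cytotoxicity.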
# [20] = target: Estrogen receptor (Homo sapiens) (UniProt P03372); assay: qHTS assay to identify small molecule agonists of the estrogen receptor alpha (ER-alpha) signaling pathway (AID 743075; calls by dose curve;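 further: HEK293 GripTite cells with ER-alpha and UAS-driven beta-lactamase reporter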; further: potency means the concentration at half of the fitted maximal effect); conditions: HEK293 ER-alpha-UAS-bla, beta-lactamase FRET ratio, 18 h; activation: at 70.1 µM (top of the series)
# Tags describe the fitted curve by direction and shape or compound fluorescence and quenching.
compound,measurement,setting,value
COC(C)(C)CCCC(C)CC=O (stereo not drawn),Potency,[1],inactive
CCOC(=S)SSC(=S)OCC,Potency,[2],inactive
c1ccc(CCCc2ccccn2)cc1,Potency,[2],"inconclusive: 49 µM [activator, partial curve, poor fit]"
same,Potency,[3],active: 4.33 µM
same,Potency,[4],"inconclusive: 34.4 µM [activator, partial curve, poor fit]"
Clc1cc(Cl)c(Cl)c(Cl)c1Cl,Potency,[5],inactive
NNC(=O)c1ccncc1,Potency,[3],inactive
CN(C(=O)C(Cl)Cl)c1ccc(OC(=O)c2ccco2)cc1,Potency,[6],inactive
CCOC(C)OCC,Potency,[7],inactive
CCCOc1ccc(C(=O)OCCN(CC)CC)cc1N,Potency,[8],inactive
NC(=O)N[C@@H](CCC(=O)O)C(=O)O,Potency,[9],"inconclusive: 23.9 µM [rising, partial curve]"
CC(C)[C@H](N)C(=O)OCCOCn1cnc2c(=O)[nH]c(N)nc21,Potency,[10],inactive
same,Potency,[11],inactive
CCOC(=O)c1ccccc1OC,Potency,[12],inactive
COCc1nnc(-c2ccc[n+]([O-])c2)n1-c1c(Cl)c(Cl)cc2[nH]c(=O)c(=O)[nH]c12,Potency,[13],inactive
CCOc1nc2cccc(C(=O)O)c2n1Cc1ccc(-c2ccccc2-c2nn[nH]n2)cc1,Potency,[14],"inconclusive: 2.11 µM [cytotoxic, single point]"
O=C(Nc1ccccc1)OCC(CN1CCCCC1)OC(=O)Nc1ccccc1 (stereo not drawn),Potency,[10],inactive
same,Potency,[7],active: 10 µM
CCN(CC)c1ccc(C=O)cc1,Potency,[15],"inconclusive: 61.6 µM [falling, single point]"
O=S(=O)(O)c1ccc(N=Nc2c(O)ccc3cc(S(=O)(=O)O)ccc23)cc1,Potency,[5],"inconclusive: 49.2 µM [cytotoxic, partial curve, poor fit] and inconclusive: 54.9 µM [cytotoxic, single point]"
same,Potency,[15],"inconclusive: 31 µM [falling, partial curve]"
same,Potency,[16],"inconclusive: 54.9 µM [cytotoxic, single point]"
same,Potency,[17],active: 30.8 µM and active: 27.3 µM
Cc1cc(NC(=O)C2=C(O)c3ccccc3S(=O)(=O)N2C)no1,Potency,[16],"inconclusive: 12 µM [cytotoxic, partial curve]"
Cc1ncsc1CCO,Potency,[5],inactive
O=C(O)c1ccncc1,Potency,[18],"inconclusive: 35.3 µM [inhibitor, partial curve]"
COC(=O)CCC(=O)O,Potency,[16],inactive
same,Potency,[14],inactive
Nc1ccc(C(=O)NCC(=O)O)cc1,Potency,[13],inactive
CN(C)c1ccc(Cc2ccc(N(C)C)cc2)cc1,Potency,[13],"inconclusive: 9.82 µM [cytotoxic, partial curve, poor fit]"
same,Potency,[18],"inconclusive: 27.4 µM [inhibitor, partial curve] and inconclusive: 24.3 µM [inhibitor, partial curve]"
same,Potency,[14],inactive
CC(C[N+](C)(C)C)OC(N)=O (stereo not drawn),Potency,[18],inactive
same,Potency,[7],inactive
CC1(COc2ccc(CC3SC(=O)NC3=O)cc2)CCCCC1 (stereo not drawn),Potency,[10],inactive
CCCCCCCCCCCCCCCCI,Potency,[19],inactive
CCCCCCCCCCOC(C)=O,Potency,[15],"inconclusive: 0.123 µM [rising, partial curve]"
O=c1cc[nH]c(=S)[nH]1,Potency,[2],"inconclusive: 0.19 µM [activator, partial curve, poor fit]"
same,Potency,[10],"inconclusive: 0.488 µM [inhibitor, full curve]"
CN1CCCC1,Potency,[20],inactive
CC(=O)OC(C(=O)c1ccccc1)c1ccccc1 (stereo not drawn),Potency,[17],inactive
same,Potency,[3],inactive
N#Cc1ccc(CC(=O)c2cccc(C(F)(F)F)c2)cc1,Potency,[18],"inconclusive: 48.6 µM [inhibitor, partial curve]"
CS(=O)(=O)O,Potency,[6],"inconclusive: 1.94 µM [inhibitor, full curve, poor fit]"
O=C(c1ccccc1)c1cccc(O)c1,Potency,[20],active: 49.7 µM [inconclusive]
same,Potency,[4],"inconclusive: 39.2 µM [activator, partial curve]"
CCC[C@@H]1C[C@@H](C(=O)N[C@@H]([C@H]2O[C@H](SC)[C@H](O)[C@@H](O)[C@H]2O)[C@@H](C)O)N(C)C1,Potency,[20],inactive
same,Potency,[3],inactive
CNC(=O)c1c(I)c(NC(=O)CCCCC(=O)Nc2c(I)c(C(=O)O)c(I)c(C(=O)NC)c2I)c(I)c(C(=O)O)c1I,Potency,[18],inactive
same,Potency,[9],inactive
CCCCCCCCCCCCCC=O,"activity change, negative = cytotoxic",[5],inactive: -9.48% [at 6.97 µM]
same,"activity change, negative = cytotoxicity",[9],inactive: 12.8% [at 6.97 µM]
Cc1ccccc1CCO,Potency,[2],inactive
CCCCCCCOC(C)=O,Potency,[1],inactive
O=C(Cl)c1c(Cl)cccc1Cl,Potency,[14],inactive
COCCCOc1cc(C[C@@H](C[C@H](N)[C@@H](O)C[C@H](C(=O)NCC(C)(C)C(N)=O)C(C)C)C(C)C)ccc1OC,Potency,[11],"inconclusive: 3.98 µM [activator, single point]"
N#Cc1c(F)cccc1F,Potency,[8],inactive
CCOC(=O)Cc1cccc2ccccc12,Potency,[16],"inconclusive: 21.9 µM [rising, single point]"
O=C(O)c1cccc(C(=O)O)n1,Potency,[19],inactive
CCCCCCOC(=O)CCCCC(=O)OCCCCCC,Potency,[19],inactive
COc1cc(Cl)c(OC)cc1N,Potency,[8],"inconclusive: 21.7 µM [activator, partial curve, poor fit]"
CCCOC(=O)CCCCC(=O)OCCC,Potency,[9],inactive
CCCCCCCCC(=O)O,Potency,[20],"inconclusive: 0.0946 µM [falling, full curve]"
Cn1c(=O)c2c(ncn2CC(O)CO)n(C)c1=O (stereo not drawn),Potency,[17],inactive
C/C(=C(\CCO)SS/C(CCO)=C(\C)N(C=O)Cc1cnc(C)nc1N)N(C=O)Cc1cnc(C)nc1N,Potency,[8],inactive
same,Potency,[20],inactive
CCCCCN(CCCCC)C(=O)C(CCC(=O)O)NC(=O)c1ccc(Cl)c(Cl)c1 (stereo not drawn),Potency,[17],inactive
Cc1ccccn1,Potency,[12],"inconclusive: 12.6 µM [rising, partial curve, poor fit]"
